PMC10726135
Some of the results follow. At the low end of the ranking, values are background and their order means little. Measured with an extract: partners may take part in the binding.

target: T1, HNF4alpha8 (COS-7 nuclear extract) (UniProt P41235-5); assay: protein-binding microarray; details: COS-7 nuclear extract on double-stranded Agilent 4x180k PBM; binding buffer, salt, pH and temperature not given; high values mean tight binding; double strand, one strand shown; sequences stand for … in …GCCTAGGGAGATTAGAGTATCGGTCGA
T1 sequence: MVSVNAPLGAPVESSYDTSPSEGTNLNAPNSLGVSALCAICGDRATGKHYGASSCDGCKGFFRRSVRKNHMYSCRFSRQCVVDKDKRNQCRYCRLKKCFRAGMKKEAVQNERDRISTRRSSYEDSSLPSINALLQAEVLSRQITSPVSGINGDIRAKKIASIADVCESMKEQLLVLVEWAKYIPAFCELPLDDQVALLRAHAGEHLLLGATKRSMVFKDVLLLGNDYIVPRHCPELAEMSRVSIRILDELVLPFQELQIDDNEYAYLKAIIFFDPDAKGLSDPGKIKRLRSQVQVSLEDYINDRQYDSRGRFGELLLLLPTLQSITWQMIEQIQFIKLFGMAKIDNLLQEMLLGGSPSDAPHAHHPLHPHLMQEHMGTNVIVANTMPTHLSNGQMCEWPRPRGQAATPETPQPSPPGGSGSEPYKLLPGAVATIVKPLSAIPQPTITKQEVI

Sequence | binding signal (log2 normalized intensity)
GGAAATAATGCGACTTGCCTTGTGTACTCT | 2.28
CTCCCGGGGAGGTCAACCAGGGAAATTACC | -1.24
CAGGTAGAGAGCAATCATGCACCTGCGGAT | -1.42
GCTCTTTAGGAATGCAACTCTAACCTTTAC | 3.59
CTGGGGAGACTCTCTCTCCTCTCCAGCCCA | 0.89
GCAAAGGTGAGGGGAGCGTAAAACCACTGG | -1.32
AGGCCGTTCTAGCCCTTTTTCCGGCTGAAT | -1.42
TCTCCTGGAATGCAAGACCTCAGCCCTCAG | -1.39
GCCTCGGGCCTGCGAGGTTACAGGGTTCAA | 2.84
CGCCGGAACTGGTCCGGCCCGACTCACGAC | -1.26
GACAGCCAGCTGGTAAATAAAGGAACTTAC | -1.4
TCAGACTGAGGATGGGCCAAGGTTCAGAGA | 1.97
CTATGGACCTGCAAACAGCACTCTCTGATT | -1.17
AACTGAGTATTTAGCTTCCTCCCTTGGAAT | 0.0858
TCGGCGCTCCGCTTACTCGGCCTGGACCCC | 3.69
TGCCCTCACAGGTTCCAGCATGGACTTCAC | 3.32
TTGACCCTGCGATAAGTAGATACCAAATAG | 1.36
AGAGGCCTTATCTGGCCGCCTAATCCCCTG | 1.27
CCTAAGTCTGCCGTTTTCTTATTCTGTCAC | 1.43
CTCCATGCTGTAGATTGTGGAATGTCTTCT | 1.15
TTGGGACCTGAGAACAAACAATGGTTTGGG | -0.75
AAACTCTCAAGCTCTCCTCTTATCAGGCAG | -1.31
AGTGTAAAGAGCTTTTGGGCAGAGACTATG | -1.2
AATTAAGGAAGATGGTGCAAGTGGCTATGG | -0.192

Sequence | binding signal (log2 normalized intensity)
AATGCCTAAACCAGGATCCAGTCCTCACCC | -1.28
CTTTAATAGGCTGGGATGATTTCAGCTTAT | -0.555
GAAAAGTAATGAAAGGAAATCATTCCAGAA | -1.09
TATTCATTCAACTTTGACTTCCATTGTGTT | 2.08
TCGCCTAGGCCTTTCCTGGGCCTTAAAGCA | -1.25
ACAACAGCCTTGCAGATAAGCCACGAGCCT | -1.33
TCTCTGGTCAAAGGGTAAAGATTATGAACT | 2.92
GAAAACAAATAGAGCAGACTATTATCAGCC | -1.23
TCATCTGAGTAGTGTACGTTGTACCCCACA | 3.97
ACATTGTAACCACCTCTCTGGGTGGTTCGA | 0.0105
AGCAACAGACTGCTGTGTTACTAGAGCCAA | -1.33
GATTGGACTTTGGCCTGTGAATCCACATTC | 6.47
ACAGGATGCCTGAGTAATTACTATAAATGC | -0.245
CACCTGTGTCAACATGGACTTTGTTGTTTG | 4.99
GAACCGTCTGCCCAGAGCGGCAGCGCCTCC | -1.15
GTGTCAATTCCAAAGTTCAAGTAGAGCTTC | 4.15
TAAGACTAACCTTTGACCATCCACGGATGC | 5.5
CCAACCTGGCCTGTTTGATCTGGTTTTTGT | 1.72
GGATAATGATAAAGAGATTGGACTTTGGCC | 9.44
TACTGAAAAGTCTACCTTTGGCCTGGGGAT | 2.46
TCCACAGTAAAACATACTGGTGGTTTCACA | -1.14
CACCTTCAGTCACACTGTTTGCGCAAACTA | -0.902
ATCTACAGATCTGGAGCCAGCAAGGACTTT | 4.18
CAAACTCACCTGGAGAAGCAGAAGCTGCAC | -1.32

Sequence | binding signal (log2 normalized intensity)
CCCAGCATGTTTGGGTCACAATCACAAATG | 0.56
TGCAGAAAAACAGGTTCTGCAACACTTTCT | -1.18
TATATTCATAACACTTGTATGACCTTTGTT | 6.2
GCCACAACTGAGTATTTAGCTTCCTCCCTT | 0.903
GTGCTTAGCTATTTCGTTGAATGCTGAACT | 1.51
CCTTGACCTCCTGGGCCCAAGTGCTCCTCC | 0.494
AAACGCAATTGCCCTACAGCTCCTGAGTCC | 0.968
GAGGGAAAGGTCAAGAGAATTACAAACAGC | -1.18
TGAGAACTGGAGCAAAGGTCACTCTTGCTA | 5.31
TCCACTGATAAAGTTCTTTTGTGTGTTTAC | 1.8
AAAGGGTGAAATAGGAGGATTTTATTCAGG | -1.28
CTTGGTATGTCTGATGAATAGAAAGAGGTC | 1.82
CTTGTCTGATAAGATTCAGAACCCATTAAT | 0.282
CCCATCCATTTCCCATCCCCAGAGCCCCCT | 5.31
AAGACACAGAGAAAAAGAAGGTTGGGCGTT | -1.24
TGTCTTCCTCTCTGAAGGATTTAAATGGAA | 1.02
CATCTAAGACTTTATTTGAAGAAATGGTGG | 0.881
GAATTGGAAGGCAAAGTTCAACCCTGAATG | 2.56
AGGTGAATCAACGATAAGGGATGATAAGGC | -1.38
ATAAACTTCCAGCCATTTTGTGAGCTCTGA | -1.13
ATGGCATTTAGGGTATTTCCTAAACCAACT | -1.41
CTCTGAGATGGACTCCAGTGATCTTATCGC | 2.49
GAAGCTGTGTAACCCTGGAGCCATAAATCC | -1.31
AGATGAGGAATCTGTTGAGAACTGGAGCAA | -1.43

Sequence | binding signal (log2 normalized intensity)
ACTCTCTCATTCTGATATGCACTGTCAGTT | 0.722
GAGGCAGTGGCCTGAGGCAGCCAGTGAGTG | -1.4
AAGCAACACTTTCTGACCTTTAAGCACCCA | 4.22
CCCGAAGGGTAGGAGAAGCTGGAAGGACAG | -1.28
GAAGCAGGCAGGCAGCTTCCAGGTGACAGT | -1.25
TCTTCTTCTGGGGACTTCGGTCTTTTTTCT | 2.67
GCTTGTTGGTTCAAGAGAAATGTTATCTCA | 1.37
TGTGTTTCCACAAACACAGATCAGATATGA | 0.289
TTTTTCTTGGGTGTATGGGTATAGGCGCGC | 1.09
GTGGAATTTGTGCTTATTTCCCATCAAGGA | 0.292
TTGAACCTTGGGTCTGTAATCTCACAACTC | 1.98
ACACAGAGGAGCGACCCAGGCAGCCCCTTT | -0.898
TGCAAATGGATGAATTTTATCACTCCATCA | -1.25
ATAGCAAACACGATTGGATGGAAGGTCCTT | 0.748
AGAAACAGAAAGTCCGGGGGCCAGTTCACT | -1.35
TCTGTGAAGGTCAGGAGCCCCACAGAGCAA | 2.3
AGAGCACAGGATCCAGAGGTCACCCAGAGC | 2.19
GATTTTTAGAGCTGGGGCACAATGCTGCAA | -1.43
CATTAATTAACCTTTGAGCTGGGTGGCCCT | 3.85
TTATCTTGATGGTTAAAGTCCAATCTTCTG | 4.82
CTATCACTGTCTAGCTGTGTAACCCTGGAC | 1.97
